Laboratory results reported in paper PMC4336329 (PLoS ONE, 2015).
The campaign covered roughly 310,000 compounds. About 2,200 (0.71%) showed an effect of 50% or more. The effect is printed as a negative number. The list shows a part of the results.

target: human ether-à-go-go-related gene (hERG) potassium channel (human, UniProt Q12809); assay: primary screen, population patch clamp on CHO cells stably expressing hERG
Sequence (Q12809 whole entry, looked up): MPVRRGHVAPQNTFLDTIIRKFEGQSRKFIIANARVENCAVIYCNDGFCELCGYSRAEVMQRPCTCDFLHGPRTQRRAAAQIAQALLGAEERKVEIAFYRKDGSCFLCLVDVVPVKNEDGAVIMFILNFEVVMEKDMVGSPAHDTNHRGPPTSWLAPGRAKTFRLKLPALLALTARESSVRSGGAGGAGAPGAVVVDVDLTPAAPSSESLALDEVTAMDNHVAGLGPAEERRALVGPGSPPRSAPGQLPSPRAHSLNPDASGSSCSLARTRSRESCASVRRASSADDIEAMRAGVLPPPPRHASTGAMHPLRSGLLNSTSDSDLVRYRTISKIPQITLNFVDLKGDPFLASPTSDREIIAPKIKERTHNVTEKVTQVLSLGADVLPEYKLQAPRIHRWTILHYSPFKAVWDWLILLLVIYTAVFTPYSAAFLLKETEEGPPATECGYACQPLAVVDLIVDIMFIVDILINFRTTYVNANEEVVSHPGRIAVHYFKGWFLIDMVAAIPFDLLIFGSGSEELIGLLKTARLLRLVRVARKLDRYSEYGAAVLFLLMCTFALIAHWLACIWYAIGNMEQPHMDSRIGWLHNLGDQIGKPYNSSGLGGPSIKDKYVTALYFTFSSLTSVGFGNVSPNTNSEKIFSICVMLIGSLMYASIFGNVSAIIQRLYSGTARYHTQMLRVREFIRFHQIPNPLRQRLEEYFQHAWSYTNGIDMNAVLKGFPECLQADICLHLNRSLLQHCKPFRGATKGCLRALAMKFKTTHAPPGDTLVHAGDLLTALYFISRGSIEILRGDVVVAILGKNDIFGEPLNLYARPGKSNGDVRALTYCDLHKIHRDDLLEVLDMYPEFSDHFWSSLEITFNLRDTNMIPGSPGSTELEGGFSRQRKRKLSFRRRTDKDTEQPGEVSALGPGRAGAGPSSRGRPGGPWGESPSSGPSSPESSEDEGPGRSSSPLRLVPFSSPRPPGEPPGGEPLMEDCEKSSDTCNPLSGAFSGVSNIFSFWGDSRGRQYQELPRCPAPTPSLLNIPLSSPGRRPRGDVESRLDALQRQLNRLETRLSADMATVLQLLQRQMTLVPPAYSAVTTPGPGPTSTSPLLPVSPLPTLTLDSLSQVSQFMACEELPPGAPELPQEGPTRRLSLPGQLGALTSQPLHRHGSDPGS

Compared with c1ccc(COc2ccc3nocc3c2)cc1, OCc1c(OCc2cccc(F)c2)ccc2ccccc12 is higher in “hERG current change (%, negative = inhibition) at 1uM” value: 3.73% for the first, 17% for the second.

Compared with COc1cccc(-c2nn(-c3ccc(C)cc3)cc2C(=O)N2CCN(C3CCS(=O)(=O)C3)CC2)c1 (centres unmarked), COC(=O)COc1cccc(NC(=O)c2ccc(C)cc2)c1 is higher in “hERG current change (%, negative = inhibition) at 1uM” value: -10.8% for the first, 16.9% for the second.

Going from CC(CNC(=O)COc1ccc2c(c1)OCO2)c1ccccc1 (centres unmarked) to Cc1cccc(OCC(=O)NC(=S)Nc2ccccc2N2CCOCC2)c1, the “hERG current change (%, negative = inhibition) at 1uM” value falls from 14.9% to 11.6%.

Compared with Cc1ccc(S(=O)(=O)N2CCN(C(=O)CSc3nnnn3C)CC2)c(C)c1, CN1CCN(C(=O)COc2ccc3ccccc3c2Br)CC1 is lower in “hERG current change (%, negative = inhibition) at 1uM” value: 26.3% for the first, -2.35% for the second.

Compared with O=C(NC1CC1)c1sc2cc(F)ccc2c1Cl, O=S(=O)(NC1CC1)c1ccc(F)c(F)c1 is lower in “hERG current change (%, negative = inhibition) at 1uM” value: 13.1% for the first, 10.1% for the second.

First: CC1Oc2ccccc2N(Cc2cccnc2)C1=O (centres unmarked)
Second: O=C1c2ccccc2C(=O)N1CCCC(=O)N1CCc2ccccc21
The “hERG current change (%, negative = inhibition) at 1uM” value of the first is lower: 4.85% for the first, 6.1% for the second.

First: CC(=O)c1ccccc1OCc1ccc(C(=O)c2ccccc2)cc1
Second: CCN(c1ccccc1)S(=O)(=O)c1ccc(OC)c(NC(=O)Cc2ccc(F)cc2)c1
The “hERG current change (%, negative = inhibition) at 1uM” value of the first is higher: 11.5% for the first, -3.37% for the second.

Going from CCOC(=O)c1c(C)[nH]c(C(=O)COC(=O)CNC(=O)c2ccc(Cl)cc2)c1C to COC(=O)c1c(C)[nH]c(C(=O)CC#N)c1C, the “hERG current change (%, negative = inhibition) at 1uM” value falls from 16% to 10.2%.

Going from CCN(CC)CCCN(Cc1cc2cc3c(cc2[nH]c1=O)OCO3)C(=S)Nc1ccccc1 to Cc1[nH]c(=S)c(C#N)c(-c2ccccc2)c1C(=O)Nc1ccccc1, the “hERG current change (%, negative = inhibition) at 1uM” value rises from -5.35% to 15.7%.

First: CC1(C)CC(=O)C(/C=N/n2c(C(F)(F)F)nc3ccccc3c2=O)=C(O)C1
Second: CC(C)c1ccccc1-n1c(SCC(=O)N2CCc3ccccc3C2)nc2ccccc2c1=O
The “hERG current change (%, negative = inhibition) at 1uM” value of the first is lower: 9.24% for the first, 10.7% for the second.

Compared with CCO[C@H]1OC(C(=O)Nc2ccccc2)=C[C@@H](C2CC2)[C@@H]1CCCO, CN(C)S(=O)(=O)N1CCC(n2nccc2NC(=O)CCCc2ccccc2)CC1 is higher in “hERG current change (%, negative = inhibition) at 1uM” value: 8.36% for the first, 11.5% for the second.

First: COc1cc(/C=C/C(=O)Nc2nnc(CC(C)(C)C)s2)cc(OC)c1OC
Second: CC(C)=CC(=O)Nc1nnc(-c2ccc(F)cc2)s1
The “hERG current change (%, negative = inhibition) at 1uM” value of the first is higher: 10.2% for the first, -0.981% for the second.

First: COc1ccc(S(=O)(=O)N2CCC(C)CC2)cc1N(C)S(=O)(=O)c1ccccc1
Second: COc1ccc(C(=O)C2CCCN(C(=O)c3ccccc3C(C)=O)C2)cc1F (centres unmarked)
The “hERG current change (%, negative = inhibition) at 1uM” value of the first is higher: 11.4% for the first, 3.19% for the second.

Going from COC(=O)COc1ccc(/C=C2/SC(=O)N(CC(=O)N3CCCC3)C2=O)cc1Br to CCN1C(=O)C(=O)N(CC(=O)N(C)CC(=O)Nc2ccccc2Cl)C1=O, the “hERG current change (%, negative = inhibition) at 1uM” value falls from 12.3% to 10.4%.

First: O=C(CN1C(=O)NC2(CCc3ccccc32)C1=O)NCC(F)(F)F (centres unmarked)
Second: COc1ccccc1NC(=O)CSc1nnc(CNC(=O)c2ccco2)o1
The “hERG current change (%, negative = inhibition) at 1uM” value of the first is lower: 9.77% for the first, 12.4% for the second.

Compared with Cc1cc(OC(=O)CCCNC(=O)OC(C)(C)C)c2c3c(c(=O)oc2c1)CCC3, NC(=O)c1cc(Br)cc2c3c([nH]c12)CCCC3 is higher in “hERG current change (%, negative = inhibition) at 1uM” value: -4.33% for the first, 11.4% for the second.

First: Cc1cccc(NC(=O)C2CCN(C(=O)c3ccco3)CC2)c1C
Second: CCCn1cnc2cc(NC(=O)c3ccco3)ccc21
The “hERG current change (%, negative = inhibition) at 1uM” value of the first is higher: 15.7% for the first, -1.03% for the second.

Going from COc1ccc(CSc2nnnn2-c2ccc(O)cc2)cc1F to COc1ccc(CC(C)N2CCN(c3cccc(C(F)(F)F)c3)CC2)cc1OC (centres unmarked), the “hERG current change (%, negative = inhibition) at 1uM” value falls from 11.9% to -6.45%.

Compared with CCOC(=O)Cc1csc(N/C(=N/S(=O)(=O)c2ccc(F)cc2F)c2ccccc2)n1, O=C(CS(=O)(=O)c1ccccc1)Nc1nc2ccccc2s1 is higher in “hERG current change (%, negative = inhibition) at 1uM” value: 9.2% for the first, 9.98% for the second.

Going from CCc1ccc(Cc2cnc(NC(=O)C3=NCCN3)s2)cc1 to CCCCC1=CC2=CC(=O)C(C)(OC(=O)c3cnc4ccccc4n3)C(=O)C2=CO1 (centres unmarked), the “hERG current change (%, negative = inhibition) at 1uM” value rises from 0.134% to 17.4%.

Compared with Cc1ccc(-n2c(-c3ccco3)n[nH]c2=S)cc1, Cc1ccc(Nc2ncc3c(n2)CC(c2ccco2)CC3=O)c(C)c1 (centres unmarked) is lower in “hERG current change (%, negative = inhibition) at 1uM” value: 16.7% for the first, -10.1% for the second.

Going from CN1CCN(NC(=O)Nc2cc(Cl)cc(Cl)c2)CC1 to CCCN1CCN(C(=O)Nc2ccc(C(=O)OCC)cc2)CC1, the “hERG current change (%, negative = inhibition) at 1uM” value falls from 9.87% to 9.5%.

First: Cc1ccc(N=C(NO)c2nonc2N)c(C)c1
Second: CCc1[nH]c(=O)[nH]c1C(C)S(=O)(=O)c1ccc(C)cc1 (centres unmarked)
The “hERG current change (%, negative = inhibition) at 1uM” value of the first is lower: 10.4% for the first, 11.5% for the second.

First: CCOC(=O)C1C(=O)CC(C)(O)C(C(=O)OCC)C1c1cccs1 (centres unmarked)
Second: COC(=O)c1ccc(C(=O)OC)c(NC(=O)CCS(=O)(=O)Cc2ccccc2)c1
The “hERG current change (%, negative = inhibition) at 1uM” value of the first is higher: 21.2% for the first, 7.09% for the second.

First: COc1ccccc1C(=O)Nc1c(C)n(C)n(-c2ccccc2)c1=O
Second: CC(=O)NC(c1ccc2ccccc2c1)c1ccc2cccnc2c1O (centres unmarked)
The “hERG current change (%, negative = inhibition) at 1uM” value of the first is lower: 13% for the first, 13.7% for the second.

Compared with O=C1CC2(CCCC2)Oc2ccc(Cl)cc21, c1cc2c(cc1C1=Nn3c(nnc3C3CCCCC3)SC1)OCO2 is higher in “hERG current change (%, negative = inhibition) at 1uM” value: 6.48% for the first, 10.1% for the second.

Compared with CC1Cn2c(nnc2C23CC4CC(CC(C4)C2)C3)S1 (centres unmarked), CC12CN3CCN(CC(C3)/C1=N/NC(N)=O)C2 is higher in “hERG current change (%, negative = inhibition) at 1uM” value: 7.65% for the first, 11.7% for the second.

Going from OC(CN1CCCCC1)CN1CCCCC1 to O=S(=O)(c1ccc(NC(=S)NCc2ccncc2)cc1)N1CCCCC1, the “hERG current change (%, negative = inhibition) at 1uM” value falls from 15.5% to 13%.

First: CC(C)=CCN1CCN(Cc2cccc3c2OCO3)CC1CCO (centres unmarked)
Second: NC(=O)c1ccccc1Nc1nc(NCCO)nc(N2CCCC2)n1
The “hERG current change (%, negative = inhibition) at 1uM” value of the first is lower: 7.17% for the first, 18.7% for the second.

For CC(C)(C)n1nnnc1C(c1cccs1)N(Cc1ccccc1)Cc1ccco1 (centres unmarked), the “hERG current change (%, negative = inhibition) at 1uM” value was -0.957%.
